# Reference: US20190359666A1 (ACADEMIA SINICA, published 2019)
# How the values were obtained:
# [1] = biological target: T1, bFGF (UniProt P09038 part only, limits assumed); assay: Biacore SPR
# T1 construct: also called basic fibroblast growth factor
# [2] = biological target: T2, IGF-1 (UniProt P05019 part only); assay: cell-based or functional assay
# [3] = biological target: T2, IGF-1; assay: biotinylated IGF-1 ELISA on Fc-captured chimera, 4 C PBS control (the reference); experiment 4-81
# Description: (§1) Plates were coated with goat anti-human Fc antibody, blocked and then incubated with chimera as in the Fc ELISA. Biotinylated IGF-1 (GroPep) or VEGF-Biotin (R&D Systems VEGF biotinylated with sulfo-NHS-LC-biotin as per instructions (Pierce) was added for 2 hours followed by streptavidin-HRP (Jackson Immunoresearch) for 30 minutes. Chromogenic development with tetramethyl benzidine was performed as described above.
# (§2) To test the stability of the present chimeras, some purified chimeras (see, Table 4) were incubated with PBS or a conditioned medium from the MCF-7 cell line overnight at 37° C. and PBS overnight at 4° C. The IGF-1 binding and VEGF binding were measured using the biotinylated IGF-1 and VEGF.
# [4] = biological target: T2, IGF-1; assay: biotinylated IGF-1 ELISA on Fc-captured chimera, 4 C PBS control (the reference); experiment 3-192
# Description: as §1, §2
# [5] = biological target: T2, IGF-1; assay: biotinylated IGF-1 ELISA on Fc-captured chimera, after overnight in PBS at 37 C, against the 4 C PBS control; experiment 4-81
# Description: as §1, §2
# [6] = biological target: T2, IGF-1; assay: biotinylated IGF-1 ELISA on Fc-captured chimera, after overnight in PBS at 37 C, against the 4 C PBS control; experiment 3-192
# Description: as §1, §2
# [7] = biological target: T2, IGF-1; assay: biotinylated IGF-1 ELISA on Fc-captured chimera, after overnight in MCF-7 conditioned medium at 37 C, against the 4 C PBS control; experiment 4-81
# Description: as §1, §2
# [8] = biological target: T2, IGF-1; assay: biotinylated IGF-1 ELISA on Fc-captured chimera, after overnight in MCF-7 conditioned medium at 37 C, against the 4 C PBS control; experiment 3-192
# Description: as §1, §2
# T2 sequence (P05019 49-118 limits assumed): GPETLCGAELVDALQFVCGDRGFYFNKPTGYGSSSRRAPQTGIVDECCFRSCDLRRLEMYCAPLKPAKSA
# T1 sequence (P09038 143-288 limits assumed): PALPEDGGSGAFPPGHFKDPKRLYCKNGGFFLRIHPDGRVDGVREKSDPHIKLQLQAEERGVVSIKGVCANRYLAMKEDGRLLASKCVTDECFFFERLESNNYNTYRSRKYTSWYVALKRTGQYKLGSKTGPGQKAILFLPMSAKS
binder,measurement,setting,value
"IGFBP3-Fc (Fc fusion, IGFBP3 fused to IgG1 Fc; also called native IGFBP3 Fc dimer) not shown",binding result,[1],binds
same,EC50 in inhibiting IGF-1 induced proliferation of hep3B cells,[2],0.047 µM
same,IGF-1 binding remaining over controls,[3],100%
same,IGF-1 binding remaining over controls,[4],100%
same,IGF-1 binding remaining over controls,[5],80%
same,IGF-1 binding remaining over controls,[6],41%
same,IGF-1 binding remaining over controls,[7],28%
same,IGF-1 binding remaining over controls,[8],24%
